Whole data set: some 4,500 sequences, median “median log2 fold change of GCK-ALFA target abundance (FLAG IP / Myc IP barcode read proportion)” near 0.078, cut for the lowest 2% near -0.6. The list shows a part of the results.
B1: GBRAP_53_6397 (protein)
chain: SAATIAALLAELRALIAEVDADPTLDPEEVAARAGELLRAAVAAGAPAAELTALARELAAAVAARGLGVEVGTRLAATAAAAGAEEVAAVFTEAAVEDLE
B2: GBRAP_80_6810 (protein)
chain: AEERLEENLKKIEELDPELAERLKKIIERAKAAGVPVETLAELAEALLELLKVDKELAKEMLDELEEFLEEEIARGDTAEAEATLRVFAGEMLLEVEELE
B3: GBRAP_43_5760 (protein)
chain: SKELVDGAFDFALLALEEPSISQEQKVKAIKGAFDLAADEGYADKEKVLEVVKAAGKSLSKEELEKLAKHLKELSKKYPELKETLDEALKILEKAIAEKK
B4: GBRAP_137_3644 (protein)
chain: PNVTITVKTEGDLVEITITFDDPEKAEEVAELITDIAVENGALAISNEIKEDGTLESTIWVPKEKADALIDALVDALTTEFGATVTVIDENTGEVTTVEA
B5: GBRAP_184_5326 (protein)
chain: STLEVHIPNASLEEIVAQVAAAAKQAAAAGANLTLYIDAEGFSSEELVALLEAIGEIAKAEGIKNVTIGLDVEVDEETADKLIEVADKYGIKLTLALSDE
B6: GBRAP_52_6112 (protein)
chain: MREEMERLVEEILALVKAGRLEEARALLREFARRANEEEIELFAEALAERARRAAPEDWDAVWRLAEMAEEELLAEGWPEELADLLLAKTAAALYEREQA
B7: GBRAP_57_6477 (protein)
chain: SERLERVEELADRLEALVRAKGPLADIIAAAEALIAELPEDAELYVIDANGEAVLLAGDRAARAAAAAARLEALAAAGDWDGLLRFVRTLAGDAIATVLE
B8: GBRAP_128_3320 (protein)
chain: MDEELLAEFKELAEAAKKADLPTLAKLTAEMVALIGQADAETREEMAEIFRKALEELDAEKLDVVADTLRAEMPKLDPEAARVVADLAVDALNLAEEKEE

Target: GABARAP, O95166
Test: median log2 fold change of GCK-ALFA target abundance (FLAG IP / Myc IP barcode read proportion) (log2 ratio); each designed protein is fused to an ALFA-tag nanobody in HEK293 cells to bring the named protein to FLAG-tagged glucokinase (GCK); Myc marks an untargeted standard; higher = target protein stabilised (more abundant)
Settings: target protein: 3xFLAG-MCP-GCK-ALFA reporter; HEK293 landing pad (RPLP)
Outline: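 An ALFA-nanobody-fused binder library was recombined into HEK293 landing-pad cells and induced with 2 μg mL^−1 doxycycline. Cells were transfected with a plasmid expressing a FLAG-tagged target and a Myc-tagged standard. After 48 h, lysates underwent anti-FLAG and anti-Myc immunoprecipitation, and circular RNA barcodes were reverse transcribed, amplified and sequenced. Target abundance is the per-binder median log2 ratio of FLAG to Myc barcode read proportions. Barcodes needed ≥10^−7 proportion in both replicates, binders ≥3 barcodes per replicate, and a 10^−6 pseudocount was added; the two replicates were pooled.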

Sequence of GABARAP, O95166 (O95166 whole entry, the tested form may be a part): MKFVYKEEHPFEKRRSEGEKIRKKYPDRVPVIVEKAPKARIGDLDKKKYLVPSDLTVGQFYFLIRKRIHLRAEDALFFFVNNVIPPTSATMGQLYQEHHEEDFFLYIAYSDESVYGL

Row | Binder | median log2 fold change
1 | B1 | 0.226
2 | B2 | -0.27
3 | B3 | 0.201
4 | B4 | 0.0996
5 | B5 | 0.171
6 | B6 | -0.121
7 | B7 | 0.22
8 | B8 | 0.0824
